The values below come from US20140187612A1 (INTER K, published 2014).

One assay concerns the target T1, integrin β1 subunit.
T1 construct: whole, on cells; Immunoprecipitated from cell lysates
Put plainly: integrin immunoprecipitation (mAb QE2E5) from SW480 β6 transfectant lysates, Western blot with anti-ERK mAb SC-1647. On the technique in general: Immunoblotting shows a protein as a band on a membrane.

A further assay has as its target T2, integrin β5 subunit (human).
T2 construct: whole, on cells; Immunoprecipitated from cell lysates
T2 sequence (looked up): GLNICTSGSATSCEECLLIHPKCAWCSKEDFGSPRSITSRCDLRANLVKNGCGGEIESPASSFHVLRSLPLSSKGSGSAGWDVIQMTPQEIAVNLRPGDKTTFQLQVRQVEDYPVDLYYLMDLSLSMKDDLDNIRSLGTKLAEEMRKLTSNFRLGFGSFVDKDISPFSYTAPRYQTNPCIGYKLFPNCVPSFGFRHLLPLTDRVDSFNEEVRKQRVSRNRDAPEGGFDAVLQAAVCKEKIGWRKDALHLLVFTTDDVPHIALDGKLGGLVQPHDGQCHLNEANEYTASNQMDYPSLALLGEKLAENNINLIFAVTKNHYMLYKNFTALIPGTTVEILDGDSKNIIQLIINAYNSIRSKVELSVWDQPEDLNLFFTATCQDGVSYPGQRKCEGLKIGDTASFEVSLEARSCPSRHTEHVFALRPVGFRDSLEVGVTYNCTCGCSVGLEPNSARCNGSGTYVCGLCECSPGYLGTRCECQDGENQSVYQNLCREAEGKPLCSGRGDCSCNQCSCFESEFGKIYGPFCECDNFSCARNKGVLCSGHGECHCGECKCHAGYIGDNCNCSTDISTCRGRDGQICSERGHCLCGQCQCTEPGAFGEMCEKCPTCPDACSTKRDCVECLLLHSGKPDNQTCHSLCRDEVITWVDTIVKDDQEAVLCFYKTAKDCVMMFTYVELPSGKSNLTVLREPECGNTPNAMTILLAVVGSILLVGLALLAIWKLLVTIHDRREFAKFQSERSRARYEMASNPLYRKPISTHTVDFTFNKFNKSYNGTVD
Put plainly: integrin immunoprecipitation (mAb P1F6) from SW480 β6 transfectant lysates, Western blot with anti-ERK mAb SC-1647.

B1: ERK (endogenous extracellular signal-regulated kinase in cell lysates, band migrating at the position of ERK2) (enzyme)
chain: not shown
notes: also called β6-associated ERK
As for B1, the binding result with integrin β1 subunit and with integrin β5 subunit was “no binding” each time.
